Laboratory results: paper PMC4560099
Positions count from the first letter of the chain named. Names and notes keep the numbering of the source. These are yes or no findings as the source states them, for the method shown. In cells and extracts the contact can be indirect. Some results given as binding are weak or reduced against the parent protein; the word gives no strength. Sequences can lack the tags named with a protein.

Chains of the proteins cited; added tags and fusions are not shown.
UniProt P62258: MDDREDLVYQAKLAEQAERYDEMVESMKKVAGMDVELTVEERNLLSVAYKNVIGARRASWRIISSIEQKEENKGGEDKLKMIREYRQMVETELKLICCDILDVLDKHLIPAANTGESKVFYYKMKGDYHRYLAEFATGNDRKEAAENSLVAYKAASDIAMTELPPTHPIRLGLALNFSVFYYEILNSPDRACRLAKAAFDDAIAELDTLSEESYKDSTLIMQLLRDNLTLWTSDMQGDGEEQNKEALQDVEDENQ

B1: CRTC1^270 (amino acids 1-270 of CRTC1 fused to Dendra2), wild type (domain or fragment, UniProt Q68ED7 1-270)
chain: MATSNNPRKFSEKIALHNQKQAEETAAFEEVMKDLSLTRAARLQLQKSQYLQLGPSRGQYYGGSLPNVNQIGSSSVDLAFQTPFQSSGLDTSRTTRHHGLVDRVYRERGRLGSPHRRPLSVDKHGRQADSCPYGTVYLSPPADTSWRRTNSDSALHQSTMTPSQAESFTGGSQDAHQKRVLLLTVPGMEDTGAETDKTLSKQSWDSKKAGSRPKSCEVPGINIFPSADQENTTALIPATHNTGGSLPDLTNIHFPSPLPTPLDPEEPPFP
modifications: phosphorylated in neurons (sites not determined for this sample)
B2: CRTC1^270 S64A/S151A/S245A (domain or fragment, UniProt Q68ED7 1-270)
chain: B1 chain with S64A, S151A, S245A
B3: CRTC1^270 S64A (domain or fragment, UniProt Q68ED7 1-270)
chain: B1 chain with S64A
B4: CRTC1^270 S151A (domain or fragment, UniProt Q68ED7 1-270)
chain: B1 chain with S151A
B5: CRTC1^270 S245A (domain or fragment, UniProt Q68ED7 1-270)
chain: B1 chain with S245A
B6: endogenous CRTC1 (CREB-regulated transcriptional coactivator 1) (protein, UniProt Q157S1 1-630)
chain: MATSNNPRKFSEKIALHNQKQAEETAAFEEVMKDLSLTRAARLQLQKSQYLQLGPSRGQYYGGSLPNVNQIGSSSMDLSFQTPFQSSGLDTSRTTRHHGLVDRVYRERGRLGSPHRRPLSVDKHGRQADSCPYGTVYLSPPADTSWRRTNSDSALHQSTMTPTQAESFTGGPQDAHQKRVLLLTVPGMEETGSETDKTLSKQSWDSKKAGSRPKSCEVPGINIFPSADQENTAALIPATHNTGGSLPDLSTIHFPSPLPTPLDPEEPPFPALTSSGSTGSLAHLGVGGTGQGMNTPSSSPQRRPAVVSPLSLSTEARRQQAQQVPPTLSPLSPITQAVAMDALSLEQQLPYAFFTQAGSQQPPPQPQPPPPPPPVSQQQPPPPQVSVGLPQGGPLLPSASLTRGPQLPPLAVTVPSTLPQSPTESPGQPPMGIDVTSAPALQYRTGAGSPATQSPTSPVSNQGFSPGSSPQHTSTLGSVFGDAYYEQQMTARQANALSRQLEQFNMMENAISSSSLYNPGSTLNYSQAAMMGLSGSHGGLQDPQQLGYAGHGGIPNIILTVTGESPPSLSKELSSTLAGVSDVSFDSDHQFPLDELKIDPLTLDGLHMLNDPDMVLADPATEDTFRMDRL

Molecular target: GST-14-3-3ε (UniProt P62258)
Test: pull-down; as a1, but with phosphatase-treated CRTC1^270 (lysate treated with phosphatase); GST-14-3-3ε on glutathione beads; immunoblot; only the target purified

Binder | binding
B1 | no binding (condition: phosphatase-treated CRTC1^270)

Molecular target: GST-14-3-3ε (UniProt P62258)
Test: pull-down; purified GST-14-3-3ε bound on glutathione beads; lysates of lentivirus-transduced cortical neurons (25 mM Tris pH 7.4, 137 mM NaCl, 1% NP40, 10% glycerol, protease and phosphatase inhibitors); beads washed extensively; immunoblot with antibodies against GST or CRTC1; only the target purified

binding | Binder
binds | B1
no binding | B2
binds | B3
binds | B4
binds | B5
binds | B6
